Assay results: PubChem BioAssay AID488969 (Vanderbilt High Throughput Screening Facility, 2010)
The full ranking holds about 110,000 compounds; the median of “z-score” is about -0.1, and the highest 2% start at about 2. The list shows a part of the results. Calls of active or inactive are those of the source.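 Rule for the calls: active = z-score in the third read window above 3 or below -3; inactive = the rest.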

What follows are compounds tested against Metabotropic glutamate receptor 8 (Rattus norvegicus) (UniProt P70579) (assay: rat mGluR8 modulators via GIRK flux, primary screen, cell-based, thallium flux, HTS (AID 488969)). Conditions: HEK293 rat mGluR8, GIRK (G protein-gated inwardly rectifying potassium channel) thallium flux, FluoZin2; at 10 µM; stronger effect = higher value; submaximal glutamate (EC20) added with thallium.
UniProt P70579, sequence (P70579 whole entry, looked up): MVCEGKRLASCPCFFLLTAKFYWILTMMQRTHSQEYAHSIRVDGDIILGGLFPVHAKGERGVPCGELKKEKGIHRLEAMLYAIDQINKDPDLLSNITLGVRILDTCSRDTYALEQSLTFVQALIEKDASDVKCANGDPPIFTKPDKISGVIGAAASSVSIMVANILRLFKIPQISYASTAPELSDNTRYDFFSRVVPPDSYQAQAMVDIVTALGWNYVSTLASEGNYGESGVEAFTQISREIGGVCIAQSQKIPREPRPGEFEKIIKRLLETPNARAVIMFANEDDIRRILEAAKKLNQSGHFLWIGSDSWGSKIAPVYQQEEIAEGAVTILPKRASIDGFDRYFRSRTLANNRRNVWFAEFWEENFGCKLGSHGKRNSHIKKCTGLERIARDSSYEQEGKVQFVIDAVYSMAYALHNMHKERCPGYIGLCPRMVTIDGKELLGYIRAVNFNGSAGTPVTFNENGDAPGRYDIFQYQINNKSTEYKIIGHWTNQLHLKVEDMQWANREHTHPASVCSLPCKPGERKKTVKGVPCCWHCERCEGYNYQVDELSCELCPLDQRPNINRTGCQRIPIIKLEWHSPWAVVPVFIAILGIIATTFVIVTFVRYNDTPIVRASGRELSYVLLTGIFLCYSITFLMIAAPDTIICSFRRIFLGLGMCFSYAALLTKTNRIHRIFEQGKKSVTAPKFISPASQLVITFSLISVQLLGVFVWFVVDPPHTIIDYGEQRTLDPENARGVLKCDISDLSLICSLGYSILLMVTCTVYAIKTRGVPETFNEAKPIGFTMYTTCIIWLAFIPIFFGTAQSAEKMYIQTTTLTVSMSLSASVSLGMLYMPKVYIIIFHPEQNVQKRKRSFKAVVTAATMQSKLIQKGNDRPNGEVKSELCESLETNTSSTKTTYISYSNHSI

| Compound | z-score |
| --- | --- |
| Cc1ccc(-c2noc(-c3ccccc3C(=O)N3CCOCC3)n2)cc1 | -0.231 |
| NNc1nc(-c2ccccc2Cl)nc2sc3c(c12)CCCC3 | -0.295 |
| CC1CCC(NC(=O)C2c3ccccc3C(=O)N2CCCN2CCOCC2)CC1 (centres undefined) | -0.425 |
| CCC(CC)c1nnc(NC(=O)CCN2C(=O)c3ccccc3C2=O)s1 | -0.264 |
| Cc1ccc(NC(=O)c2ccc(NCc3ccco3)c([N+](=O)[O-])c2)cc1Cl | -0.0411 |
| CC(CCc1ccccc1)NC(=O)CSc1nnnn1C (centres undefined) | 0.307 |
| O=c1c2ccccc2nnn1CSc1nnc(-c2ccc3c(c2)OCO3)o1 | 0.0266 |
| O=C(NC1(C(F)(F)F)NC(=O)N(Cc2ccccc2)C1=O)c1cccs1 (centres undefined) | -0.255 |
| COCC(=O)OCn1nnc2ccccc2c1=O | 0.28 |
| CC(=O)c1c(C)[nH]c(C(=O)OCn2nnc3ccccc3c2=O)c1C | -0.597 |
| Cn1c(NCCN2CCOCC2)nc2c1c(=O)n(Cc1cccc(Cl)c1)c(=O)n2C | -0.615 |
| O=C(CSc1nnc(-c2cccs2)n1-c1ccccc1)N1CCc2ccccc21 | 0.058 |
| C=CCOc1ccc(/C(O)=C2/C(=O)C(=O)N(CCCn3ccnc3)C2c2cccs2)cc1 (centres undefined) | -0.428 |
| O=C(CSc1nnnn1C1CCCCC1)NCc1ccco1 | -0.228 |
| CC(C)c1ccccc1-n1c(SCc2cc(=O)oc3ccc4ccccc4c23)nnc1-c1cccnc1 | -0.0151 |
| COc1cccc(C(O)CC(N)=O)c1 (centres undefined) | 0.108 |
| CCc1ccc(OCC(=O)NC(=S)Nc2ccc(F)cc2)c(Br)c1 | 0.182 |
| Cc1nc(SCC(=O)NCC2CCCO2)c2oc3ccccc3c2n1 (centres undefined) | 0.0303 |
| CCCC(=O)Nc1nc(C)c(-c2csc(Nc3cc(OC)ccc3OC)n2)s1 | -0.282 |
| CCN(CC)C(=O)/C(=C/c1ccc2c(c1)OCO2)NC(=O)c1ccc(Br)cc1 | -0.142 |
| CCOC(=O)c1c(-c2ccccc2)csc1NC(=O)c1cc(S(=O)(=O)N2CCOCC2)ccc1C | -0.000506 |
| O=C(NCCc1c[nH]c2ccccc12)/C(=C\c1cccs1)NC(=O)c1ccccc1 | 0.0313 |

| Compound | z-score |
| --- | --- |
| Cc1ccc2c(c1)N(Cc1ccccn1)C(=O)C(C)O2 (centres undefined) | -0.941 |
| N#CC12CCCCC1CC1CCCCC1(C#N)N2Cc1ccccn1 (centres undefined) | -0.31 |
| O=C(N/N=C/c1ccco1)c1ccccc1OCc1ccccc1Cl | -1.38 |
| CCc1ccc(-n2c(C)cc(/C=N/NC(=O)OC)c2C)cc1 | 0.58 |
| Cc1ccc(NC2=C(N3CCCCC3)C(=O)c3ccccc3C2=O)cc1 | -0.184 |
| Cc1ccc(NC(=O)c2cccc3c2C(=O)N(C2CCCCC2)C3)cc1 | -0.304 |
| Cc1cccc(NC(=O)CSc2nnnn2-c2cccnc2)c1 | -0.00427 |
| Cc1nc(NNC(=O)c2ccccc2)cc(-c2ccccc2)n1 | -0.00736 |
| CCOc1ccc(OCC)c(NC(=O)CCS(=O)(=O)c2ccc(Br)s2)c1 | 0.479 |
| CCN(CC)CCN1C(=O)C(=O)/C(=C(/O)c2ccc(OC)cc2)C1c1cccs1 (centres undefined) | -0.0859 |
| CC(C)CCNC(=O)Cc1c(C(=O)O)[nH]c2ccc(Cl)cc12 | 0.538 |
| Cc1ccc(CN2C(=O)CCC2C(=O)NCCCN2CCCCC2C)cc1 (centres undefined) | -0.435 |
| Cc1nc(N2CCCC2C(=O)O)c2oc3ccccc3c2n1 (centres undefined) | -0.651 |
| O=C(c1cnc2c(c1)COc1ccc(Cl)cc1-2)c1ccccc1O | 0.0372 |
| O=C(NC(=O)c1cccc(F)c1)OC[C@@H]1CCCN2CCCC[C@H]12 | 0.0626 |
| CC(NC(=O)COC(=O)Cc1ccccc1[N+](=O)[O-])c1ccccc1 (centres undefined) | -0.0899 |
| Cc1cc(NC(=O)CCN2C(=O)/C(=C/c3ccccc3Cl)SC2=S)no1 | -0.0728 |
| CCOc1ccc(NC(=O)CCCOc2cc(=O)n(C)c3ccccc23)cc1 | 0.038 |
| Cc1ccc(NC(=O)C2CCCN2S(=O)(=O)c2ccc3c(c2)CCC(=O)N3)cc1Cl (centres undefined) | 0.159 |
| OC1CCCN(Cc2ccc3c(c2)Cc2ccccc2-3)C1 (centres undefined) | 0.315 |
| CCOC(=O)N1CCN(C(=O)CSc2nc3ccccc3c(=O)n2-c2ccccc2)CC1 | -0.915 |
| COc1ccc(NC(=O)CCSc2ccc3ccccc3n2)cc1 | -0.187 |

| Compound | z-score |
| --- | --- |
| CCOC(=O)C(C)On1c(SC(C)C(=O)OCC)nc2ccccc2c1=O (centres undefined) | -0.305 |
| Cc1ccc(OCCCCN2CCC(C)CC2)c(Br)c1 | 0.342 |
| O=[N+]([O-])/C=C/c1cn(Cc2ccc(F)cc2)c2ccccc12 | 0.0891 |
| CCN=C1SC(CC(=O)NCCc2ccc(OC)cc2)C(=O)N1CC (centres undefined) | -0.109 |
| Cc1cccc(OCCNc2cc(N3CCN(CCO)CC3)ccc2[N+](=O)[O-])c1 | -0.0985 |
| Cc1cccc(-n2c(SCC(=O)NC3CCCC3)nnc2-c2ccoc2C)c1 | -0.591 |
| Cc1ccc(C(=O)C[n+]2cccc3ccccc32)cc1 | -0.236 |
| COc1ccc(S(=O)(=O)Nc2ccc(S(=O)(=O)Nc3nc(C)cc(C)n3)cc2)cc1OC | 1.27 |
| Cc1ccc2c3c1C(=O)C(=O)N3C(C)(C)CC2C (centres undefined) | -0.697 |
| Cn1c(CCNC(=O)C(C)(C)C)nc2ccccc21 | -0.00183 |
| COc1cnc(-c2ccccc2)nc1Oc1ccccc1C | -0.0402 |
| Cc1ccc(Cn2ccc(NC(=O)CCSc3nc(-c4ccco4)cc(C(F)(F)F)n3)n2)cc1 | 0.106 |
| CC(SCc1ccccc1)C(=O)N/N=C/c1cccs1 (centres undefined) | 0.713 |
| CCOC(=O)C(NC(=O)c1ccc(OC)cc1)(N1CCOCC1)C(F)(F)F (centres undefined) | 0.152 |
| CC(C)(C)c1ccc(/C=C2\SC(=O)N(CCNC(=O)c3cccc(S(=O)(=O)N4CCOCC4)c3)C2=O)cc1 | -0.215 |
| COc1cccc(C(=O)n2c(SC)nc3cc4c(cc32)OCCO4)c1 | -0.629 |
| O=C1CC(N2CCC(O)(c3ccc(Br)cc3)CC2)C(=O)N1c1ccc(Cl)cc1 (centres undefined) | -0.333 |
| C=CCNc1sc(C(=O)c2ccccc2)c(N)c1C#N | -1.32 |
| O=C(O)C1CCCCC1C(=O)Nc1cccc2ccccc12 (centres undefined) | -0.0468 |
| O=C(Nc1ccccc1C(=O)NC(Cc1ccccc1)C(=O)NC1CCCCCC1)c1ccccc1 (centres undefined) | -0.114 |
| COc1ccc(/C=N/Nc2nc(Nc3ccccc3)nc(N3CCCCC3)n2)cc1OC | -0.23 |
| Cc1cccc(NS(=O)(=O)c2cc(C(=O)N3CCc4ccccc4C3)ccc2Cl)c1C | -0.467 |

| Compound | z-score |
| --- | --- |
| CCOCc1nnc(NC(=O)c2ccco2)s1 | 0.371 |
| N#Cc1cc(C#N)c(N2CCN(c3ccccn3)CC2)nc1N | -0.0444 |
| O=C(NCc1ccc2c(c1)OCO2)c1cc(-c2ccccc2)on1 | -0.221 |
| Cc1ccc(/C=N/NC(=O)CSc2nc3nc(C)cc(C)n3n2)cc1 | -0.108 |
| COc1ccc(N(CC(=O)NC2CCCCC2)C(=O)CNC(=O)c2ccco2)cc1OC | -0.012 |
| COCCNC(=O)CS(=O)Cc1nc(-c2ccc(Cl)cc2)oc1C (centres undefined) | 0.00619 |
| CCOCC(=O)Nc1nnc(Cc2ccc(OC)cc2)s1 | -0.115 |
| COc1ccc(C(=O)CSc2nc3nc(C)cc(C)c3c(=O)[nH]2)cc1OC | -0.692 |
| Cc1ccc(C)c(OCc2nnc(N)s2)c1 | 0.0977 |
| Cc1cc(C)c(C2C(C#N)=C(N)Oc3n[nH]c(C)c32)cc1CN1CCCC1 (centres undefined) | 0.255 |
| Cc1[nH]c2ccccc2c1C(=O)CSc1ccccc1 | -0.0521 |
| COC(=O)c1ccc(N)cc1O | -0.204 |
| CCOC(=O)CSc1nc(N)c(C(=O)Nc2ccc(N(C)C)cc2)s1 | -1.4 |
| O=Cc1cn(CC(=O)N2CCOCC2)c2ccccc12 | -0.773 |
| CCC(Sc1ncnc2c1nnn2-c1ccc(F)cc1)C(=O)OC (centres undefined) | -0.361 |
| CC(C)n1nc(C(=O)Nc2ccccc2N2CCOCC2)c2ccccc2c1=O | -0.035 |
| COc1cc(/C=N/NC(=O)CCc2n[nH]c(=O)[nH]c2=O)cc(OC)c1OC | -0.317 |
| O=C(O)CCCN=CC1=C(O)C(C(=O)c2ccccc2)CCC1=O (centres undefined) | -0.148 |
| CC(C)C(=O)Nc1cccc(NC(=O)c2cc3ccccc3o2)c1 | active: 7.7 |
| CCN(CC)C(=O)Oc1ccc2cc(Br)ccc2c1 | 0.935 |
| O=C(COC(=O)COc1ccc(Cl)cc1Cl)Nc1cccnc1Cl | -0.365 |
| CCSc1nnc(NC(=O)C2(C)Cc3ccccc3C(=O)O2)s1 (centres undefined) | -0.0977 |

| Compound | z-score |
| --- | --- |
| CCCCCCOC(=O)/C=C/c1c(C)[nH]c(=O)[nH]c1=O | -0.139 |
| O=C(COC(=O)c1cnccn1)c1ccc(Br)cc1 | 1.37 |
| CC(NC(=O)OCc1ccccc1)C(=O)N1CC(O)CC1C(=O)O (centres undefined) | -0.00982 |
| COc1ccccc1NC(=O)Nc1cc(NC(=O)Nc2ccccc2OC)c(C)nc1C | -0.415 |
| C[N+](C)(C)CCCN1C(=O)CCCC1=O | -0.194 |
| Cc1cccn2c(=O)c3cc(C#N)c(=NC(=O)c4cccnc4)n(CC4CCCO4)c3nc12 (centres undefined) | active: -4.61 |
| COc1ccc(C2c3c(ccc4ccccc34)Oc3ncn4nc(CO/N=C/c5ccccc5)nc4c32)cc1 (centres undefined) | -0.12 |
| Cn1c(NC(=O)c2ccccc2)c(-c2cccs2)c(=O)c2ccccc21 | 0.294 |
| O=C(Nc1ccc(Oc2ccc3ccccc3c2)cc1)c1ccco1 | 0.388 |
| COc1ccc(C2(NC(C)=O)CCN(C(=O)CCC(=O)O)CC2)cc1 | 1.5 |
| O=C(CCn1cnc2ccccc21)N/N=C/c1ccc(O)cc1 | -0.0105 |
| COc1ccc([N+](=O)[O-])cc1NC(=O)CC(c1ccccc1)c1ccccc1 | -0.135 |
| COc1ccc(OC)c(N2C(=O)CC(Cc3cc(C)cc(C)c3)C2=O)c1 (centres undefined) | -0.399 |
| CCc1nnc(NC(=O)CSc2nnc3c(C)cc4c(C)ccc(C)c4n23)s1 | -0.358 |
| Cc1cc(C(=O)N/N=C/c2ccc(O)c([N+](=O)[O-])c2)n[nH]1 | 0.252 |
| COCCNC(=O)c1cc2cc(Br)cc(OC)c2oc1=O | -0.19 |
| CCOC(=O)CSc1nnc(CNC(=O)Cc2ccccc2)n1-c1ccccc1OC | 0.235 |
| CS(=O)(=O)N1CCC(C(=O)Nc2ccc3c(c2)OCCO3)CC1 | 0.0973 |
| Cc1ccc(C(=O)Nc2ccon2)cc1S(=O)(=O)N1CCOCC1 | -0.00769 |
| CC(=O)Nc1ccc(NC(=O)/C(Cl)=C/c2ccccc2)cc1 | -0.311 |
| O=C(NNS(=O)(=O)c1ccc(CCCl)cc1)C(O)(c1ccccc1)c1ccccc1 | 0.0615 |
